Experimental data taken from the supplement of paper PMC3334620.
Over roughly 33,000 sequences, “E-score (-0.5 to 0.5)” has its median near -0.056; the highest 2% begin near 0.38. This is one part of the list.

These sequences were tested against Stb4 (UniProt P50104) (assay: PBM E-score (8-mer binding enrichment) (E-score (-0.5 to 0.5)); higher = stronger / more preferred TF binding; most listed sequences are background and not binding sites). Details: protein concentration: 200 nM; construct: GST-DNA-binding domain.
Summary of the method: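 Using PURExpress in vitro transcription/translation, GST-tagged yeast transcription factors were made in full-length or DNA-binding-domain form. These were applied at about 100-200 nM to double-stranded universal all-10-mer Agilent arrays, and bound protein was detected with fluorescent anti-GST. Scans were normalised with masliner before the Universal PBM Analysis Suite assigned E-scores to ungapped eight-base words pooled with their reverse complements.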

Sequence	PBM E-score
ATACCGCC	0.18
TAATTGCA	-0.0136
GTCTAGAC	-0.342
CCTCCCAC	-0.0773
TAATGGTA	-0.0303
TAGTAACA	-0.0586
AAATTGTA	-0.101
GCAGCTTA	-0.193
CCCCAAGA	-0.234
ACGAGTTA	-0.0115
ATTGTATG	-0.0615
AATGCCTC	-0.0527
CAGCCGTC	0.129
CGCTATTC	0.0269
TCAAACGA	0.0128
GACATATA	0.0246
TACTGCGA	-0.199
CACGGACA	0.0424
AGGCCCCT	-0.212
CATTTTAC	0.0779
ATTCATTC	0.172
AGACATCC	0.123
AGCCATAA	-0.159
GAGACTTA	-0.0893
CTCCATGA	-0.166

Sequence	PBM E-score
AAGCGTAA	0.0981
GTAAGTAC	0.00926
CTTATGCA	-0.211
ACCAAATC	-0.108
AGATTACC	0.199
AGGTTCTC	0.00395
CTTCGGCA	0.443
GCCTGCTA	-0.208
CCACCCAC	0.00917
AGTGAGGC	-0.0956
AGCACGAA	-0.0715
ATCAATTG	-0.141
GCCACCCA	-0.121
ACCTCGCG	-0.0698
CTCTTTGA	-0.285
ATGAAGGA	-0.158
ACGTGCAG	-0.147
GTTATGAA	0.0167
CAATTGAA	-0.174
CCGTTGCA	0.0311
CGCTGAAG	-0.0361
ACCTACCG	0.0744
GAGTCATC	0.0353
AACTCCTT	-0.0527
CTGGATGC	-0.153

Sequence	PBM E-score
TAAGCCGA	0.392
AAGTGAGC	-0.178
CCCACACA	-0.27
ACGACCTG	-0.286
GGGGATGA	-0.0342
GTAAGCTA	-0.105
ACTTCTGA	-0.216
CAAACAAC	0.0106
ATAAACCC	0.0851
ACTACCTC	-0.00512
CCTGATGA	-0.184
GACAACGC	-0.106
AAGAATCG	0.197
AGCGTCAG	-0.331
ACTTCGTA	-0.111
ACTTACCC	0.27
AAGCTAAA	-0.0871
CAGTTGCG	-0.0584
ACAGTTTG	-0.12
CGGTCACC	0.0522
ATTTTGAG	-0.0118
AGCGGGCA	-0.067
CAAATGGA	-0.0648
CAAGCCAG	-0.178
AGCCTATC	0.00436

Sequence	PBM E-score
ACTGTACG	-0.153
ACACTGGT	-0.266
ATAACGTG	-0.238
AATCCACC	-0.14
CCGTACAA	0.155
CGAGCCAG	0.207
CACAAAAA	0.109
CACTAGCC	0.236
ATGTGCAA	-0.0852
ATATGAAG	-0.0533
GCTGGTTA	-0.169
CATACCAG	-0.159
AAAGTTAG	-0.00674
ATGTCGCC	0.0168
AACAGCTC	0.0753
GCGCCCCA	-0.0809
AGGAAATG	-0.148
TAAGTAAA	-0.035
ACGATTAT	0.0179
AGCAGGTG	-0.0921
AACCGCCT	0.115
CAAAGAAA	-0.0442
TTCCGGAA	0.46
GACTCTCC	-0.159
AAATCCGT	0.186

Sequence	PBM E-score
GACTGACA	-0.0446
ATTCGGTG	0.169
AGAGTCCA	-0.321
AAGCTACT	-0.0913
ACCTTGCG	-0.116
CTACCGGC	0.162
GCTCCATA	-0.229
CGTGCTCC	0.168
ACCCCGGG	0.261
ATTATCGG	0.302
GGGAGTCA	0.156
GACAGAAC	-0.018
ACCCCATG	0.00851
CTGCAAGA	-0.169
ATAACCAT	-0.0977
AATGGATA	0.138
AACTTTCG	0.132
ACGCCCGC	0.0103
CAACGATG	-0.211
GATGACAC	0.00956
GTGGGCCA	0.043
CATCGTCA	-0.333
GTTCAGCA	-0.19
AGGAAAAG	-0.115
GTCTGTCA	-0.00777

Sequence	PBM E-score
CCCTCTGA	-0.0599
ATCGAGGC	-0.0909
AAAAAGTA	-0.0355
CCCTTTAC	-0.0394
AATCTGCG	0.0721
AACAGTAA	-0.208
ACTAGAGT	-0.164
ACAGCTCT	-0.323
CTCTAGAG	-0.00064
ACTGTTAA	-0.237
TATATTAA	0.0622
ACTGCGAC	-0.00264
AAACGAGG	-0.142
ACCGCTAG	-0.295
AACTTGTC	0.0103
CAGTAGCG	-0.0884
TAACTCGA	0.0229
CTAGGTAA	-0.147
ACACGTGA	-0.0353
ACCTGGTG	-0.0216
AAAGGAGT	0.0609
GACTGAAC	-0.0466
CGTCAGGA	-0.157
GATGTACA	-0.0272
GGTCCAAC	0.0127

Sequence	PBM E-score
AATCGCGG	0.1
CACCTGCC	0.00594
ACAGAATC	-0.0638
AGATGTAT	-0.214
CCCAACTC	0.135
CAAGGTTC	0.0397
GACAAGAA	-0.0789
AAAACCTT	0.0361
CATGGGCC	-0.00909
GACGTCGC	-0.283
ACGCATTG	-0.193
ATTAGAAT	-0.0347
AACGCGAT	0.0057
CTGCAAAA	-0.0685
CGCCAGAG	-0.0752
ATTACAGC	-0.25
CCGAGATC	0.435
CAGAACCA	-0.271
AAAAGATG	-0.204
GATCGTAA	-0.0241
CATTAGGA	-0.271
GAAGACTC	-0.115
TATTAAAA	0.0956
GGTCGTAC	0.0644
GGGTGGAA	-0.0531

Sequence	PBM E-score
ACCGCGGT	0.0633
AGGTAGAT	-0.00788
CCCTTCCG	0.363
ATATATCC	0.332
TACCAGTA	0.0144
CTATCCTC	-0.0662
ATATCGGC	0.316
GGAAGTAC	0.317
GTGCTGAA	-0.176
ACCGACGA	0.285
GTCCCGAC	0.376
CACTTAGA	-0.034
GTAACAGA	0.075
CGTTACAA	-0.151
GGAACGCA	0.272
ATAACGAG	-0.0944
GGACTCAA	-0.12
CAAGCCCC	0.0224
GAGCGGCA	0.164
ACTAGCTG	-0.203
AACCCAAA	-0.14
CAGTGACA	-0.238
ATATAAAT	0.0789
AGTTAGCG	-0.114
CCCGCGAC	0.176

Sequence	PBM E-score
TCGCTTAA	-0.168
AAAGTGTA	-0.154
TTGAACAA	-0.0836
AGACCGTA	-0.12
CCCGGCAG	0.261
CAAGGATC	0.00882
ATCCGTGA	0.331
ATCTAAGG	-0.219
ACCTAACG	-0.194
GACCTCGA	-0.0253
ACTAGATC	-0.0752
ATGCGTGG	-0.199
ATTTATCA	0.0131
AGGCCCGA	0.233
CTCGTAAA	0.0334
CATGTTTC	0.101
TGATTGAA	-0.194
ACGAAAGA	-0.119
CTCACTTA	-0.14
ATGACGCG	-0.0456
CGCCCTAG	-0.0478
CACGTGGA	-0.172
AACTGTCC	0.0472
CGATTATA	0.0999
AGCGGTGG	-0.0316

Sequence	PBM E-score
CAAGCTCA	-0.241
AAGTCCTC	-0.0489
AATCCTGT	-0.0567
GTGTTCAA	-0.0835
GAGCCAGC	-0.0917
ACCGAGGT	0.392
CGAATAAC	0.141
CCCCCGAC	0.175
CCTCACCG	-0.0593
CTCTCTTA	-0.243
CGAAGTTA	0.112
AAAGCGGC	0.196
AGACGTGG	-0.0737
ACTTTAAA	0.194
AGTGCTCA	-0.348
GGGGACCA	-0.024
AGTGTTCC	0.23
CCATGCAC	-0.202
CACCGAGC	0.295
GGTATACC	0.261
ACTTTTCC	0.246
TGTTGCAA	-0.00184
ATAGAGAG	-0.17
TATGAGCA	-0.223
GAATTCGA	0.0324

Sequence	PBM E-score
CTTATGAC	0.0527
AGCATGTA	-0.274
GCTGAGAA	-0.3
CGTTATTC	-0.0121
TATGAGAA	-0.23
AGGAACAT	-0.223
AGAAACTA	-0.0858
CTCAGCTA	-0.197
CAATTCAC	-0.0549
TGAGCACA	-0.193
ACGTACCT	-0.133
CCTCACGC	-0.0898
AATTCCGT	0.31
CCCCGACA	0.16
ACGCATGA	0.00876
CGGTGCAA	0.0798
CTCACCAG	-0.217
ACCAAGTC	-0.0444
TGCCGCAA	0.135
GCGACGCA	-0.235
TGTACTAA	-0.148
ACCATGGA	-0.0808
CGTGTCTA	0.015
GCGTGGAC	-0.107
ACGCGAAC	-0.187

Sequence	PBM E-score
GTGGTCAA	-0.189
GAAATACA	-0.149
CGAGATAC	0.163
CTCTGGGA	-0.232
AGTGGGCA	-0.0117
AGTCCACC	-0.0819
AAGAAGAG	-0.064
GATCAATA	-0.0388
CAAGTAGC	-0.264
ATAATTCG	0.0689
CGTCCACG	-0.0192
AGCTTTTA	-0.0101
CGGGCTAC	0.131
CTAACTGA	-0.0828
CGTGACTC	-0.101
ATCAAAAA	0.00924
GATATCCA	-0.0589
CGTCACAC	-0.0041
CCCTCCAC	-0.191
CAGCAGGG	-0.243
ACAACTGG	-0.0467
TTCTAGAA	-0.0493
ACGGGTCC	0.214
ATTACCAG	-0.105
ACATCTCA	-0.113

Sequence	PBM E-score
ATAAGACG	-0.112
ACCGCGCG	0.136
TATCCTGA	-0.0875
GCACAGGC	-0.108
CAGACGGC	-0.0269
AGCAGGCG	-0.216
CGGGCCGC	0.309
GACGTTGA	-0.00692
AACATTAG	-0.229
TACAAAAA	-0.127
AATATGTG	0.0136
CGTCAAAG	-0.163
CCTTATAA	0.104
GTGTGGGA	0.0105
CGAAAACG	0.0816
CATTCATC	-0.144
TCAGCGGA	0.192
CATTTACC	0.00883
AGCATGAG	-0.175
CGTTTCAG	0.0363
CACAGTCA	-0.221
ACGTACCC	0.108
AGCATACC	-0.0852
CCAAAAGC	-0.105
CAGGCATC	-0.227

Sequence	PBM E-score
AGGATTAT	-0.0938
ATCGAACC	0.089
ACAACTCG	0.0391
ACAGTACC	-0.0799
CGGATGGA	0.364
GCCTTATA	0.0142
AATGATCT	-0.12
AGACGACC	-0.235
AGCGACCT	-0.144
GCTAGTCC	-0.0339
AATTCTCA	-0.149
AAAGAAAG	-0.00387
AATAGCAT	-0.135
AGCTCTGA	-0.288
AACCGCGC	0.051
GAAGTTCA	0.0304
AACCAGGT	-0.0413
ACTTTCGC	-0.239
AGGGCCGC	-0.21
